Drawing on article PMC6374363, this text covers binding for one molecule.

These are yes or no findings as the source states them, for the method shown. Binding seen in cells or lysates may run through a third protein. Some entries that bind do so weakly or less than the wild type. Sequences can lack the tags named with a protein.

What all share (experiment): co-IP; B16-F1 cells co-expressing GFP-BRCA2 truncations and MEILB2-MYC; extract on GFP-trap_MA beads 2 h at 4 °C; wash with high-salt buffer (400 mM KCl); immunoblot ('GFP pull-down assay')
Assay [1] concerns the target T1, GFP-BRCA2-C (a.a. 2036–3329) (mouse) (UniProt P97929).
T1 sequence: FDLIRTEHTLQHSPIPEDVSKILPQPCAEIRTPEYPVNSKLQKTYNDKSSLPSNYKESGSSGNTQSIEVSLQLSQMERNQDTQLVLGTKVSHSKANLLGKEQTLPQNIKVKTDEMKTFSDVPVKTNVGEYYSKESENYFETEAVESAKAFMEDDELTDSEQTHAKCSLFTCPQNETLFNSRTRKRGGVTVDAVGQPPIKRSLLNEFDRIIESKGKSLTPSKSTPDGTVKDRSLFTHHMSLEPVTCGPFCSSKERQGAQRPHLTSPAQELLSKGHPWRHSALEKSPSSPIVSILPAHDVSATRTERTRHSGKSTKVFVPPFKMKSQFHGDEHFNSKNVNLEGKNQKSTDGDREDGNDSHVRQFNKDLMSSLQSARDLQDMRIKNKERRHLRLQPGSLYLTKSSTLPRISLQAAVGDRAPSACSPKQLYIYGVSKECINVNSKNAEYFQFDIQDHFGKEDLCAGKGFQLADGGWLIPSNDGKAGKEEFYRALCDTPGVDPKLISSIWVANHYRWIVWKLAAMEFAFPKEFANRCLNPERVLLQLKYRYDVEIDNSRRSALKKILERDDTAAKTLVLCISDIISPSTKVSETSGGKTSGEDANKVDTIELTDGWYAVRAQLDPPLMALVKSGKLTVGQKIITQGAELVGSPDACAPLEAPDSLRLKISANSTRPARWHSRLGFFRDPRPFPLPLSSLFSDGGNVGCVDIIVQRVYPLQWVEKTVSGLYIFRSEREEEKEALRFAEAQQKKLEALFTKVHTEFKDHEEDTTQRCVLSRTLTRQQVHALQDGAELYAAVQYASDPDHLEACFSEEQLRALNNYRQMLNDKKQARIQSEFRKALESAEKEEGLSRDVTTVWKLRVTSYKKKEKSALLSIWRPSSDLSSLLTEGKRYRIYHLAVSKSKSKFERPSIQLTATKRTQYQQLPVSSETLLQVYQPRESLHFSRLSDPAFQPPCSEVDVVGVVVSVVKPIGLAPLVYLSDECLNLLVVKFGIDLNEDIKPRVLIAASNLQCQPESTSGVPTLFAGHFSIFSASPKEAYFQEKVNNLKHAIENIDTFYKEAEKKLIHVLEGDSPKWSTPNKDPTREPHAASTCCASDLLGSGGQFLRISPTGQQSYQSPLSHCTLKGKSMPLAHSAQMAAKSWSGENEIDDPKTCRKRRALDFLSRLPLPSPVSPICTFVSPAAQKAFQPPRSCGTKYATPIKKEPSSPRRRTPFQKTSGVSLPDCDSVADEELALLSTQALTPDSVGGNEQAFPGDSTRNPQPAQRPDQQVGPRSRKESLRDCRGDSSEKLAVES

Assay [2] deals with T2, GFP-BRCA2-MBD (a.a. 2117–2339) (mouse) (UniProt P97929).
T2 sequence: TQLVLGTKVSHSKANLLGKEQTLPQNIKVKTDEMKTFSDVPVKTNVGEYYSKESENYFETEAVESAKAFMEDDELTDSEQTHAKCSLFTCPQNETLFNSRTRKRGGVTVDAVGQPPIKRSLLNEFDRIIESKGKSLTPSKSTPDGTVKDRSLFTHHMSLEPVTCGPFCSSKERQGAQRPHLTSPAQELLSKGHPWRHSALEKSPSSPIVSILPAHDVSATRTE

Assay [3] concerns the target T3, GFP-BRCA2-C ΔMBD (a.a. 2340–3329) (mouse) (UniProt P97929).
T3 sequence: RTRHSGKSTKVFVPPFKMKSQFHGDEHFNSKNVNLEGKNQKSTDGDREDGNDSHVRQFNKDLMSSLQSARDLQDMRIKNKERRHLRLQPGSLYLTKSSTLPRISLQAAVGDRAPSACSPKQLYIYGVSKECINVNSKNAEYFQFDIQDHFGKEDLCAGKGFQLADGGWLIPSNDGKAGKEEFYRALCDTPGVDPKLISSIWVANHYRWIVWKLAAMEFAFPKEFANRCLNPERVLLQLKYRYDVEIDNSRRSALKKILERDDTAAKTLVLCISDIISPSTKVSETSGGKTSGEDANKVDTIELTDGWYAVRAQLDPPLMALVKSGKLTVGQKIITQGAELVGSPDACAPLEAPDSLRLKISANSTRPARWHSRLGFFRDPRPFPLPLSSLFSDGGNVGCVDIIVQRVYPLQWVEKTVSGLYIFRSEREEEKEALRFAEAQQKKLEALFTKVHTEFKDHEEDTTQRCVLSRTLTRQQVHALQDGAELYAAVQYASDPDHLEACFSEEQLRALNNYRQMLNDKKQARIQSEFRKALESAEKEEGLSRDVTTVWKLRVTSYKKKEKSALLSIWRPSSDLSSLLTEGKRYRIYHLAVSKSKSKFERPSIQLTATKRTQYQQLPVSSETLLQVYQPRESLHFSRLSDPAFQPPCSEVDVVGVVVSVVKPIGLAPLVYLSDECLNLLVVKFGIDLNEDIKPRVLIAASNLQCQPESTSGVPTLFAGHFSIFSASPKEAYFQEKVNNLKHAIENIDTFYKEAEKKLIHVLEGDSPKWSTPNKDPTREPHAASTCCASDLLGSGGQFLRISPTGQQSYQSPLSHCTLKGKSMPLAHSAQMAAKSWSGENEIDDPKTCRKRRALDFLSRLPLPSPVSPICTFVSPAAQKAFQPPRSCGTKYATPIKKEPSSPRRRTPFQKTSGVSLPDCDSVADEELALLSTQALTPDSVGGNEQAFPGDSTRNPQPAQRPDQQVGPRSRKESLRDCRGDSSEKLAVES

B1: MEILB2-MYC (protein, UniProt Q9D4G2 1-338)
chain: MAATVGDGSGTEEACRNMESKEEFVKVRKKDLERLTTEVMQIRDFLPRILNGELLESFQKLKMVEKNLERKEQELEQLIMDREHFKARLETAQADSGREKKEKLALRQQLNEAKQQLLQQAEYCTQMGAVTCTLLWGVSSSEEVVKTILGGDKALKFFNITGQTMESFVKSLDGDVKEVDSDENQFVFALAGIVTNVAAIACGREFLVNSSRVLLDTMLQLLGDLKPGQCTKLKVLMLMSLYNVSINSKGLKYITESPGFIPLLWWLLSDPDAEVCLHTLRLIQSVVLEPDVFSKVASELQSSLPLQRILAMSKSRNSHLQSAAQELLEDLRALDCNV
In the case of B1, the figures for the binding result in assay [1], in assay [2] and in assay [3] were “binds”, “binds” and “no binding”, respectively.
